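Cultured in 96-well plates, cells were exposed to test compound for 48 hours across five concentrations. GI50 = concentration required for 50% inhibition of growth. TGI marks complete inhibition of growth.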 Where only a bound is given, the exact number is not on record here.

The test system of the test is NCI-H322M lung. Nature of the test: growth of human tumour cells (NCI), 48 h.

As for `N#Cc1nc(-c2ccccc2)oc1S(=O)(=O)N1CCCCC1`, the GI50 is 90.7 µM and the TGI was > 100 µM.

Take `CCC(CC)n1c(=O)c(SC2=NC3C(NN2)N(CC)C(=O)N3CC)c(C(=O)O)c2ccccc21` (stereo unspecified): the GI50 was 7.02 µM and the TGI was > 100 µM.

As to `O=C1CC2(CCOCC2)Oc2ncccc21`, the GI50 is 2.87 µM and the TGI stood at 10.2 µM.

Source of the values: PubChem BioAssay (NCI).
